Measured values reported in patent publication US7629351B2, “N-((1R,2S,5R)-5-(tert-butylamino)-2-((S)-2-oxo-3-(6-(trifluoromethyl)quinazolin-4-ylamino) pyrrolidin-1-yl)cyclohexyl)acetamide and other modulators of chemokine receptor activity, crystalline forms and process” (Bristol-Myers Squibb Company, priority 2006, dated 2009).

Assays:
[1] = target: T1, hCCR2 (Homo sapiens, UniProt P41597)
T1 sequence (P41597 1-360 isoform P41597-2): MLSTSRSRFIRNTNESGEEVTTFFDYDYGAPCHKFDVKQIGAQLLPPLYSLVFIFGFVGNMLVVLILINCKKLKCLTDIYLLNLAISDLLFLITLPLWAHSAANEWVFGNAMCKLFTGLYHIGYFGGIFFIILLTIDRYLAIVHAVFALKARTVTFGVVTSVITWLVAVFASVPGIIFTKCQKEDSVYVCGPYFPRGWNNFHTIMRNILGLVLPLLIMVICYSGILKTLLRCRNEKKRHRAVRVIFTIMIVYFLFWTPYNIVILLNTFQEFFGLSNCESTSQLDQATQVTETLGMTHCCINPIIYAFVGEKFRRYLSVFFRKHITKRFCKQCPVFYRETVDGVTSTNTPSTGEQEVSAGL

[2] = system: hCCR2 KI mice (EAE); experiment: EAE model of multiple sclerosis in hCCR2 KI mice; type: in vivo; settings: both doses, 25 mg/kg and 55 mg/kg BID oral; p<0.05
[3] = system: cyno chemotaxis; experiment: Cyno chemotaxis assay; type: cell-based, cynomolgus monkey; settings: Macaca fascicularis
[4] = target: CCR2 (Homo sapiens, UniProt P41597); experiment: Binding to hCCR2 (cold competition ligand binding, 125I-human MCP-1)

CC(=O)N[C@@H]1C[C@H](NC(C)(C)C)CC[C@@H]1N1CC[C@H](Nc2ncnc3ccc(C(F)(F)F)cc23)C1=O [Example 1, N-((1R,2S,5R)-5-(tert-butylamino)-2-((S)-2-oxo-3-(6-(trifluoromethyl)quinazolin-4-ylamino)pyrrolidin-1-yl)cyclohexyl)acetamide]
IC50 [1]: 3.7 nM | reduction of area under curve (AUC) of the clinical score [2]: 49% | IC50 [3]: 7.1 ± 2.7 nM | Ki [4]: 1.3 nM
